# Measured values published in PubChem BioAssay (Tox21).
# Where “and” joins values, the source holds several entries; their conditions need not be identical. Equal values may be shown once. Inconclusive means that the source gave no clear call. Such entries were picked first, then a sample of the others. For part of these data: Where the call is inconclusive, the potency comes from a doubtful curve fit. A structure can be active in one record and inactive in another. Calls of active or inactive are those of the source. Unless noted, calls come from the whole dose curve; as a rule, active = well fitted curve in the direction sought with a large enough effect in the repeat runs; inconclusive = weak or mixed curves; inactive = no such curve, though single readings can be large; an effect the other way counts as inactive or inconclusive.
# Experiments:
# [1] = qHTS assay for small molecule agonists of the p53 signaling pathway (AID 651631; calls by dose curve; note: nearly all actives have a fitted effect of over 15% in size; note: potency is the fitted concentration of half-maximal effect); conditions: HCT-116 p53RE-bla reporter, beta-lactamase FRET ratio, 16 h; activation: at 73.3 µM (top of the series) unless noted
# In short: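 Fluorescence intensity from cleaved LiveBLAzer B/G substrate (2 h, room temperature) served as the signal. Beforehand, HCT-116 reporter cells bearing p53 response elements were treated 16 h at 37 °C with DMSO-dissolved compounds.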
# [2] = qHTS assay for small molecule disruptors of the mitochondrial membrane potential (AID 720635); conditions: HepG2 mitochondrial membrane potential, Mito-MPS dye ratio; ratio activity, negative = MMP loss: at 83.2 µM (top of the series) unless noted; note: potency is the fitted concentration of half-maximal effect
# In short: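 HepG2 cells exposed to compound 1 hr at 37C, then Mito-MPS dye 30 min. Ratio read of aggregate (540/590 nm) versus monomer (490/535 nm) fluorescence.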
# [3] = qHTS assay to identify small molecule antagonists of the androgen receptor (AR) signaling pathway using the MDA cell line - cell viability counter screen (AID 743041; note: potency is the fitted concentration of half-maximal effect; nearly all actives have a fitted effect of over 45% in size); conditions: MDA-kb2 viability, CellTiter-Fluor, 16 h, cells co-treated with R1881 androgen agonist; viability change, negative = cytotoxic: at 70.3 µM (top of the series)
# In short: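 Same-well cytotoxicity was assessed by CellTiter-Fluor in MDA-kb2 AR-luc cells after 16 h of compound treatment under R1881 agonism.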
# [4] = qHTS assay to identify small molecule antagonists of the thyroid receptor (TR) signaling pathway - cell viability counter screen (AID 743064); conditions: GH3.TRE-Luc viability, CellTiter-Fluor, 24 h; activity change, negative = cytotoxic: at 70.3 µM (top of the series) unless noted; note: nearly all actives have a fitted effect of over 50% in size; note: potency is the fitted concentration of half-maximal effect
# In short: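 Same-well viability check: GH3.TRE-Luc cells stimulated with 1 nM T3 alongside test compound for 23.5 h, followed by CellTiter-Fluor fluorescence.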
# [5] = molecular target: Estrogen receptor (Homo sapiens) (UniProt P03372); test: qHTS assay to identify small molecule agonists of the estrogen receptor alpha (ER-alpha) signaling pathway (AID 743075; calls by dose curve;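 note: HEK293 GripTite cells with ER-alpha and UAS-driven beta-lactamase reporter; % is set by controls: 0 for no effect and ±100 for the full control effect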); conditions: HEK293 ER-alpha-UAS-bla, beta-lactamase FRET ratio, 18 h; activation: at 70.1 µM (top of the series)
# Chain of UniProt P03372 (P03372 whole entry, looked up): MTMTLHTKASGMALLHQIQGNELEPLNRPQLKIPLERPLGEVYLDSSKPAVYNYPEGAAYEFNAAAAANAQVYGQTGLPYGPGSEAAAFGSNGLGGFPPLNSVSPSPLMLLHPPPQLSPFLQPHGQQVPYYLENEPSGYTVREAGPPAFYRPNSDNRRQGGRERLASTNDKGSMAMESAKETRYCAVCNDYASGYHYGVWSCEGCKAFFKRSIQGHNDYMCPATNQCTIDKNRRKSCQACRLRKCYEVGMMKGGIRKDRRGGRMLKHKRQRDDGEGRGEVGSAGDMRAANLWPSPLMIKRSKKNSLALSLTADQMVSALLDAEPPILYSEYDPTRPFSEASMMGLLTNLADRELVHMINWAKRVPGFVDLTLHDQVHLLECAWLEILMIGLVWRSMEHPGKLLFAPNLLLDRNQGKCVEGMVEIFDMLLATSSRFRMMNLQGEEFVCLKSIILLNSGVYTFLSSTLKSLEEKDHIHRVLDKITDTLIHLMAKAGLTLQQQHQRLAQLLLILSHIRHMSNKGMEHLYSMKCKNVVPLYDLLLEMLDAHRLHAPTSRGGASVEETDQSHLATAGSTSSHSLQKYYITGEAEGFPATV
# [6] = molecular target: Estrogen receptor (Homo sapiens) (UniProt P03372); test: qHTS assay to identify small molecule agonists of the estrogen receptor alpha (ER-alpha) signaling pathway using the BG1 cell line (AID 743079); conditions: BG1Luc4E2 cells, ERE-luciferase agonist, 22 h; activation: at 70.3 µM (top of the series) unless noted; note: nearly all actives have a fitted effect of over 20% in size; note: potency is the fitted concentration of half-maximal effect
# [7] = qHTS assay to identify small molecule antagonists of the estrogen receptor alpha (ER-alpha) signaling pathway using the BG1 cell line (AID 743080; calls by dose curve;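 note: BG1 cells stimulated with 17beta-estradiol alongside compound; % is set by controls: 0 for no effect and ±100 for the full control effect; nearly all actives have a fitted effect of over 25% in size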); conditions: BG1Luc4E2 ERE-luciferase antagonist mode, luminescence; activity change, negative = inhibition: at 70.3 µM (top of the series) unless noted
# In short: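 BG1-Luc-4E2 cells (endogenous full-length ER-alpha, 4xERE luciferase) hormone-starved 5 days in charcoal-stripped FBS, plated 4,000/well for 24 h, then compound plus 17beta-estradiol for 21.5 h at 37 C; ONE-Glo luminescence read.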
# [8] = qHTS assay to identify small molecule antagonists of the estrogen receptor alpha (ER-alpha) signaling pathway using the BG1 cell line - cell viability counter screen (AID 743081); conditions: BG1Luc4E2 viability, CellTiter-Fluor, 22 h; activity change, negative = cytotoxicity: at 70.3 µM (top of the series) unless noted;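 note: compound given together with 17beta-estradiol as the ER stimulus; potency is the fitted concentration of half-maximal effect; nearly all actives have a fitted effect of over 45% in size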
# [9] = qHTS assay to identify aromatase inhibitors - cell viability counter screen (AID 743084); conditions: MCF-7 aro ERE viability, CellTiter-Fluor, 24 h; activity change, negative = cytotoxicity: at 70.3 µM (top of the series) unless noted;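 note: cells stimulated with testosterone during compound exposure; nearly all actives have a fitted effect of over 55% in size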; note: potency is the fitted concentration of half-maximal effect
# [10] = qHTS assay to test for compound auto fluorescence at 535 nm (green) in HepG2 cells (AID 720675); conditions: green autofluorescence 485/535 nm, 1 h; fluorescence, % of fluorescein control: at 91.3 µM (top of the series) unless noted; note: % is set by controls: 0 for no effect and ±100 for the full control effect
# [11] = molecular target: Glucocorticoid receptor (Homo sapiens) (UniProt P04150); test: qHTS assay to identify small molecule antagonists of the glucocorticoid receptor (GR) signaling pathway (AID 720692; active = well fitted inhibition curve with a large enough effect in the signal ratio in the repeat runs, not every such curve was filed as active; inconclusive = weak or mixed curves, or effect the other way; inactive = no such curve, though single readings can be large or run the other way; the % refers to the signal ratio; note: % is set by controls: 0 for no effect and ±100 for the full control effect); conditions: GR-bla HeLa, beta-lactamase FRET ratio, dexamethasone-stimulated, 18 h; activity change, negative = inhibition: at 58.5 µM (top of the series) unless noted
# Chain of UniProt P04150 (P04150 whole entry, looked up): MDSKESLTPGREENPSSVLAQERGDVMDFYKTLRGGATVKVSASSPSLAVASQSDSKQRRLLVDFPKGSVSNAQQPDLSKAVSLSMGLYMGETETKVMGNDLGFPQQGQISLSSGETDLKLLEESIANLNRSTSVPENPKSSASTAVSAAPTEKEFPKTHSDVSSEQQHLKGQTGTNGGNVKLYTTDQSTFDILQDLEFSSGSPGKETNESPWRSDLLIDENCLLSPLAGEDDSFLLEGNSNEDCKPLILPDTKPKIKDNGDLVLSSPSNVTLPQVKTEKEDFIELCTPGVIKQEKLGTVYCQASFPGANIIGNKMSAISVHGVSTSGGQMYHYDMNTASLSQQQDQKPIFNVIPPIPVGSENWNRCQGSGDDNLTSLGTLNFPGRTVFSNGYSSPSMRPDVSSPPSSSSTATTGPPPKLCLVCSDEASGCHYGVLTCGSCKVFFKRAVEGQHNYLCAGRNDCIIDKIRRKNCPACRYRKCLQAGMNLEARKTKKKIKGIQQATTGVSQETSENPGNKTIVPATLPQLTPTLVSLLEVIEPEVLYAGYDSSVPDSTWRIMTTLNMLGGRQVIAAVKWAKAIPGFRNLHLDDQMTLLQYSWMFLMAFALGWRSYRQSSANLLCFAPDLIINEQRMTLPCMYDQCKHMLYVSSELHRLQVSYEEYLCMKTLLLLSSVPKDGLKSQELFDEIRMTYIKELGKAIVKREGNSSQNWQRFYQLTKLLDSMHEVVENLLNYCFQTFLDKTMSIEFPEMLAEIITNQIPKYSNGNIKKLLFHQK
# In short: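 Cells plated, rested 4 h at 37 C/5% CO2; compounds in DMSO pin-transferred; dexamethasone added to 5 nM final; 18 h at 37 C; B/G FRET substrate added, 2 h room temperature; fluorescence measured.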
# [12] = qHTS assay to identify small molecule antagonists of the estrogen receptor alpha (ER-alpha) signaling pathway - cell viability counter screen (AID 743074; calls by dose curve;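 note: HEK293 cells carrying ER-alpha-UAS-bla reporter stimulated with 17beta-estradiol; % is set by controls: 0 for no effect and ±100 for the full control effect; nearly all actives have a fitted effect of over 45% in size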)
# [13] = molecular target: Androgen receptor (Homo sapiens) (UniProt P10275); test: qHTS assay to identify small molecule antagonists of the androgen receptor (AR) signaling pathway (AID 743035; active = well fitted inhibition curve with a large enough effect in the signal ratio in the repeat runs, not every such curve was filed as active; inconclusive = weak or mixed curves, or effect the other way; inactive = no such curve, though single readings can be large or run the other way; the % refers to the signal ratio; note: % is set by controls: 0 for no effect and ±100 for the full control effect); conditions: HEK293 AR-UAS-bla, R1881-stimulated, beta-lactamase FRET, 16 h; activity change, negative = inhibition: at 58.5 µM (top of the series) unless noted
# Chain of UniProt P10275 (P10275 whole entry, looked up): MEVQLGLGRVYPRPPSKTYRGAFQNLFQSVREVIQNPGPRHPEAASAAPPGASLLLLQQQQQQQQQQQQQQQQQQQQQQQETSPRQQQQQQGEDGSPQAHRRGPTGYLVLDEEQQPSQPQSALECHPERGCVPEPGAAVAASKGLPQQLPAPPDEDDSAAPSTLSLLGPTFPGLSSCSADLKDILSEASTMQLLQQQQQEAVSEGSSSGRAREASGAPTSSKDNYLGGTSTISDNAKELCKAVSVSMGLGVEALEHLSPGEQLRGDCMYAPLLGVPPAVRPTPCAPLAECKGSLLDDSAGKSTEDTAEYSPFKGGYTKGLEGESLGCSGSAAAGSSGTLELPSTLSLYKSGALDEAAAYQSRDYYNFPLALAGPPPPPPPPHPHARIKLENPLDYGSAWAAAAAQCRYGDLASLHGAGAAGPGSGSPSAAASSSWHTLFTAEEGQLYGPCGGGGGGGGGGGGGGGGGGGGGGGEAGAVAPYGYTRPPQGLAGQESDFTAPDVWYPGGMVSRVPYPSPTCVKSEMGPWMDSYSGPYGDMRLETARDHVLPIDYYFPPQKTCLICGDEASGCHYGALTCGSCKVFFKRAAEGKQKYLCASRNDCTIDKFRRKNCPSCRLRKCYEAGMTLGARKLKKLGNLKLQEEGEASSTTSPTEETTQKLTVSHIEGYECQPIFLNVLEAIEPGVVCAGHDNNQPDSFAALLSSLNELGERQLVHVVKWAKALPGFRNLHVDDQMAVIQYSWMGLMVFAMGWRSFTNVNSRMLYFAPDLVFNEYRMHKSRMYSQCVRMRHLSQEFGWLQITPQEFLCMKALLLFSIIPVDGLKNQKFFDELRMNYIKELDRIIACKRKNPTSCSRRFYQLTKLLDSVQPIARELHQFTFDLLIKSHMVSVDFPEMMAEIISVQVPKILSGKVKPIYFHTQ
# In short: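 Antagonism is scored as loss of R1881-driven beta-lactamase reporter expression in HEK293 cells carrying the reporter under a UAS element, after 16 h co-treatment at 37C and a 2 h room-temperature FRET substrate read.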
# [14] = qHTS assay for identifying genotoxic compounds that show differential cytotoxicity against isogenic chicken DT40 cell lines with known DNA damage response pathways - wild type cell line (AID 743012); conditions: DT40 wild type chicken cells viability, CellTiter-Glo, 40 h; activity change, negative = cytotoxicity: at 68.4 µM (top of the series) unless noted; note: potency is the fitted concentration of half-maximal effect; nearly all actives have a fitted effect of over 60% in size
# In short: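 Cells (DT40 wild type, 300/well) are treated with DMSO-dissolved compounds after a ~0.5 h pre-incubation and kept 40 h at 37 C/5% CO2. Viability is then measured by CellTiter-Glo luminescence following 30 min at room temperature.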
# [15] = qHTS assay for identifying genotoxic compounds that show differential cytotoxicity against isogenic chicken DT40 cell lines with known DNA damage response pathways - Rev3 mutant cell line (AID 743014); conditions: chicken DT40 Rev3-/- viability, CellTiter-Glo, 40 h; activity, negative = cytotoxicity: at 68.4 µM (top of the series) unless noted; note: potency is the fitted concentration of half-maximal effect; nearly all actives have a fitted effect of over 55% in size
# [16] = system: thyroid hormone receptor (rat, GH3 cells); test: qHTS assay to identify small molecule agonists of the thyroid receptor (TR) signaling pathway (AID 743066; calls by dose curve; note: % is set by controls: 0 for no effect and ±100 for the full control effect); conditions: GH3.TRE-Luc cells, TR agonist luciferase, 24 h; activation: at 83.9 µM (top of the series) unless noted
# Tags give direction and shape of the fitted curve or compound fluorescence and quenching.
structure (smiles),measurement,setting,value
O=C1c2c(O)cccc2[C@H]([C@@H]2O[C@H](CO)[C@@H](O)[C@H](O)[C@H]2O)c2cc(CO)cc(O)c21,Potency,[1],inactive
same,Potency,[2],"inactive and inconclusive: 33.5 µM [inhibitor, single point]"
same,Potency,[3],"inconclusive: 23.7 µM [cytotoxic, partial curve, poor fit]"
same,Potency,[4],"inactive and inconclusive: 29.8 µM [cytotoxic, single point]"
same,Potency,[5],inactive
same,Potency,[6],active: 13.3 µM
same,Potency,[7],inactive
same,Potency,[8],"inconclusive: 33.5 µM [cytotoxic, single point]"
same,Potency,[9],"inconclusive: 26.6 µM [cytotoxic, partial curve]"
CCC(C)(C)OC(=O)N[C@@H](Cc1c[nH]c2ccccc12)C(=O)N[C@@H](CCSC)C(=O)N[C@@H](CC(=O)O)C(=O)N[C@@H](Cc1ccccc1)C(N)=O,Potency,[1],inactive
same,"fluorescence, % of fluorescein control",[10],inconclusive: 14.1% [at 46 µM]
same,Potency,[11],inactive
same,Potency,[12],inactive
same,Potency,[8],"inconclusive: 13.3 µM [cytotoxic, single point]"
same,Potency,[9],inactive
CCCCCCCCCCCC(=O)OC[C@@H](O)C1OC[C@H](O)[C@H]1O (stereo partly drawn),Potency,[1],"inconclusive: 0.596 µM [activator, single point]"
same,Potency,[2],inactive
same,Potency,[4],inactive
Nc1ccn(C[C@@H](CO)OCP(=O)(O)O)c(=O)n1,Potency,[1],inactive
same,Potency,[11],inactive
same,Potency,[13],inactive
same,Potency,[8],"inconclusive: 33.5 µM [rising, single point]"
CC(=O)O[C@H]1C[C@@]2(C)[C@@H](C[C@@H](O)[C@H]3[C@@]4(C)CC[C@@H](O)[C@@H](C)[C@@H]4CC[C@@]32C)/C1=C(\CCC=C(C)C)C(=O)O,Potency,[1],inactive
same,"ratio activity, negative = MMP loss",[2],inconclusive: 42.9%
same,Potency,[3],"inconclusive: 6.68 µM [rising, single point]"
same,Potency,[6],inactive
O=C(CCCCCCCCCCCCC1CCCC1)Nc1ccc(S(=O)(=O)c2ccc(NC(=O)CCCCCCCCCCCCC3CCCC3)cc2)cc1,activation,[1],inconclusive: 1.2%
same,Potency,[14],"inconclusive: 16.8 µM [rising, partial curve, poor fit]"
same,Potency,[15],"inconclusive: 11.9 µM [rising, partial curve, poor fit]"
CC(C)[N+]1(C)[C@@H]2CC[C@H]1CC(OC(=O)C(CO)c1ccccc1)C2 (stereo partly drawn),Potency,[1],inactive
same,"ratio activity, negative = MMP loss",[2],inconclusive: 7.72%
same,Potency,[16],inactive
same,Potency,[6],active: 26.6 µM
